# Among all 45,000 compounds or so, about 200 (0.44%) were called active. Another 7% or so got no clear call; they are omitted. Calls follow the shape of the dose curve; as a rule, active = well fitted activation curve with a large enough effect; inconclusive = small, poorly fitted or top-dose-only effect; inactive = no such curve, though single readings can be large or run the other way. The list shows a part of the results.
# Test: qHTS of TDP-43 Inhibitors: NCGC Sytravon Library Screen; also: 0% is about no effect; nearly all actives have a fitted effect of over 55% in size
# Details: yeast TDP-43 toxicity rescue, BacTiter-Glo growth, 24 h; series mostly up to 46.1 µM; growth rescue (activation): at the top concentration
# Summary of the method: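 TDP-43-expressing yeast, pregrown in raffinose, seeded at OD600 0.02 in galactose medium with compound for 24 hr at 30 deg C. Growth read by BacTiter-Glo luminescence, so rescue of toxicity appears as activation.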
row,SMILES,growth rescue (activation)
1,CN(C)c1nc(N(C)C)nc(N2CC(CCl)OC2=N)n1 (stereo unspecified),inactive: 3.17%
2,Cc1noc(C)c1CN1C(=O)c2cccc([N+](=O)[O-])c2C1=O,inactive: -7.27%
3,Cc1cccc2cc(-c3nc4ccc(C(=O)O)cc4[nH]3)c(=O)oc12,inactive: -8.08%
4,O=C(CCNS(=O)(=O)c1cccc2nsnc12)NCc1ccccc1Cl,inactive: 5.91%
5,CCOC(=O)c1[nH]c2ccc(OC)cc2c1NC(C)=O,inactive: -37.2%
6,Cc1ccc(S(=O)(=O)N(C)C)cc1-n1c(SCC(=O)Nc2ccc(F)cc2Cl)nc2ccccc2c1=O,inactive: 2.36%
7,N#C/C(=C\c1ccccc1[N+](=O)[O-])C(=O)NCc1ccccc1,inactive: 1.49%
8,O=C(COC(=O)c1n[nH]c2ccccc12)NCCc1ccccc1,inactive: 0.995%
9,O=C(c1ccco1)N1CCC(c2nc3c(nnn3Cc3c(Cl)cccc3Cl)c(=O)[nH]2)CC1,inactive: 15.6%
10,CCOc1cc(/C=C2\SC(=N)N(c3nonc3N)C2=O)ccc1OCC(N)=O,inactive: 15.9%
11,Cc1ccc(NC(=O)C2CCCN(c3ncccn3)C2)cc1C (stereo unspecified),inactive: 13.1%
12,CCOC(=O)COc1ccc2c(=O)c(-c3ccccc3)coc2c1,inactive: -4.93%
13,CCCCCCCCCCSc1n[nH]c(N)n1,inactive: -90.1%
14,CC(C)Cn1c(S(=O)(=O)O)nc2ccccc21,inactive: 12.2%
15,CCOC(=O)c1c(C)[nH]c(C(=O)NCCN2CCOCC2)c1C,inactive: 3.27%
16,Cc1ccc(C(=O)c2ccc(N3CCN(C)CC3)c([N+](=O)[O-])c2)cc1,inactive: 7.22%
17,O=C(CC(C(=O)O)P(=O)(c1ccccc1)c1ccccc1)c1ccccc1 (stereo unspecified),inactive: 0.146%
18,CCOC(=O)C1CCCN(C(=O)c2ccc(C)c([N+](=O)[O-])c2)C1 (stereo unspecified),inactive: 5.54%
19,CC(C)OP(=O)(OC(C)C)C(Nc1ccccc1)c1cccc([N+](=O)[O-])c1 (stereo unspecified),inactive: 5.37%
20,C/C(=N\N1C(C)CCCC1C)c1ccccc1O (stereo unspecified),inactive: 3.45%
21,Cc1cc(NO)c(C(C)C)cc1N=O,inactive: 10%
22,O=C(COC(=O)c1cc[n+]([O-])cc1)Nc1cccc(Cl)c1Cl,inactive: -6.99%
23,CCCC(=O)Nc1ccc(NC(=S)NC(=O)c2ccccc2[N+](=O)[O-])cc1,inactive: 23.5%
24,Cc1cc(/C=C2\C(=N)N3N=C(C(C)C)SC3=NC2=O)c(C)n1-c1ccccc1,inactive: -5.03%

row,SMILES,growth rescue (activation)
1,N#CCC(=O)Nc1ccc(C(=O)NNC(=S)NC2CCCCC2)cc1,inactive: -8.06%
2,COc1cc(CCC(=O)Nc2cccc(C(F)(F)F)c2)cc(OC)c1OC,inactive: -18.6%
3,CC1=C/C(=C(/c2cc(C)c(O)c(Br)c2)c2ccccc2S(=O)(=O)O)C=C(Br)C1=O,inactive: -61.8%
4,O=C(Nc1ccccc1)N(O)c1ccc(Cl)cc1,inactive: 22.7%
5,CCCNS(=O)(=O)c1ccc(OCC(=O)NCC2CCCO2)cc1 (stereo unspecified),inactive: -9.33%
6,COC(=O)C(C(=O)OC)C(c1ccccc1)C(C(=O)c1ccccc1)[N+](=O)[O-] (stereo unspecified),inactive: 9.93%
7,CC(=O)c1c(C)[nH]c(C(=O)Nc2cccc3ccccc23)c1C,inactive: 2.34%
8,CS(=O)(=O)Cc1ccc(C(=O)N2CCCC2c2cccs2)cc1 (stereo unspecified),inactive: -2.14%
9,Cc1ccc(S(=O)(=O)NCC(=O)NNC(=O)c2ccc(Br)cc2)cc1C,inactive: -1.43%
10,C/C(=N\N1CCN(c2ccc(Cl)cc2)CC1)c1cccs1,inactive: 13.6%
11,COc1ccc(/C=C/C(=O)OCC(=O)Nc2ccc(Cl)cn2)cc1,inactive: -0.908%
12,CCOc1ccccc1/C=N/Nc1ccnc(=O)[nH]1,inactive: 4.25%
13,Cc1ccc(OCc2cc(C(=O)N(C)CCn3ccnc3C)no2)cc1C,inactive: 7.03%
14,O=C(NCc1ccc2c(c1)OCO2)c1ccc(Br)o1,inactive: 25.9%
15,CCS(=O)(=O)c1ncc(Cl)c(C(=O)Nc2ccccc2OC)n1,inactive: -3.51%
16,CCOc1ccccc1N(CC(=O)NCc1ccccc1)C(=O)CCC(=O)Nc1cc(C)ccn1,inactive: 9.27%
17,Cc1cc(C(=O)OCC(=O)Nc2ccccc2)c(C)o1,inactive: -2.56%
18,COc1cc(CNC(=O)C2CC2)ccc1OCc1ccccc1,inactive: -4.56%
19,COc1ccccc1N1CCN(Cc2cc3c(cc2O)OCO3)CC1,inactive: 0.565%
20,O=C(CSc1ncnc2c1nnn2-c1ccc(F)cc1)NCc1ccco1,inactive: -13.6%
21,Cc1ccccc1Nc1ccc(S(=O)(=O)N2CCOCC2)cc1[N+](=O)[O-],inactive: 6.04%
22,Cc1c(F)cccc1NS(=O)(=O)c1ccc2c(c1)c(=O)n(C)c(=O)n2C,inactive: 0.529%
23,CNC(=S)Nc1cc(C)ccc1OC(F)F,inactive: 4.72%
24,COc1ccc(NC(=O)CN2CCC3(O)CCCCC3C2c2cc(OC)ccc2OC)cc1 (stereo unspecified),inactive: 6.59%

row,SMILES,growth rescue (activation)
1,O=C(CSc1nncn1-c1ccccc1F)NC1CC1,inactive: 5.1%
2,CCOc1ccccc1N1CN(C2CCCCC2)CNC1=S,inactive: -6.4%
3,O=C(COc1ccc(S(=O)(=O)Nc2ccccc2)cc1)NCc1ccncc1,inactive: 10.9%
4,Clc1cc(Br)ccc1OCCCNCc1ccccc1,inactive: -6.52%
5,O=C(COC(=O)/C=C/c1ccccc1)NC1CCCCCC1,inactive: 24%
6,N#C/C(=C/Nc1ccccc1)c1ccsc1,inactive: 1.19%
7,O=C(COC(=O)Cc1ccsc1)NC(c1ccccc1)c1ccccc1,inactive: 17%
8,O=C(Cn1nnc(-c2ccccc2Cl)n1)N1CCCCC1,inactive: -5.84%
9,CN1CC(=O)N(CC(=O)Nc2ccc(OCc3ccccc3)cc2)C1=O,inactive: 8.7%
10,CCOC(=O)Cc1csc(SCc2nc3sc4c(c3c(=O)[nH]2)CCC4)n1,inactive: 23.2%
11,COCCNc1ccnc2c(Cl)cccc12,inactive: 0.11%
12,CCNC(=O)C1(C)CCCN(C(=O)c2csc3ccccc23)C1 (stereo unspecified),inactive: -1.91%
13,CCC(Oc1ccccc1)C(=O)Nc1ccccc1C(=O)N1CCOCC1 (stereo unspecified),inactive: 8.94%
14,Cc1ccc(N2C(=O)CC(Sc3ncccc3C(=O)O)C2=O)cc1 (stereo unspecified),inactive: -4.25%
15,CC(C)CCNC(=O)NC(=O)COC(=O)C1CCN(S(=O)(=O)c2ccccc2F)CC1,inactive: 4.64%
16,Cc1ccc(CNC(=O)C2CCC(=O)N(Cc3ccc(Cl)cc3)C2)cc1F (stereo unspecified),inactive: 14.2%
17,CC1(C(=O)Nc2cccc3cccnc23)CCN1C(=O)CCC1CCCC1 (stereo unspecified),inactive: 23.9%
18,COc1ccc(NS(=O)(=O)c2ccc(NC(=O)c3ccc(CN4CCOCC4)cc3)cc2)cc1,inactive: 4.18%
19,O=C(O)CN1C(=O)/C(=C\c2cn(-c3ccccc3)nc2-c2ccccc2)SC1=S,inactive: 0.651%
20,COc1ccc(NC(=O)CCSCCc2ccccn2)cc1OC,inactive: 1.46%
21,Cc1cc(C(=O)Nc2cc(S(C)(=O)=O)ccc2Cl)c(C)o1,inactive: -1.27%
22,CCCCN(CC)CCNC(=O)Cn1cnc2sc(C)c(S(=O)(=O)N3CCC(C)CC3)c2c1=O,inactive: -1.5%
23,Cc1cccc(S(=O)(=O)NC2CCCCCCC2)c1,inactive: -10.9%

# From PubChem BioAssay AID1347073 (National Center for Advancing Translational Sciences (NCATS), 2019)
